Laboratory results from PubChem BioAssay AID686971 (National Center for Advancing Translational Sciences (NCATS), 2013).
Screen size: about 360,000 compounds; about 7,500 (2.1%) were called active. Inconclusive results, whose numbers are uncertain, are shown with a selection of clear calls. The call rests on the fitted dose curve; in most records, active means well fitted cell-killing curve with a large enough effect; inconclusive means small, poorly fitted or top-dose-only effect, or effect the other way, or another doubt; inactive means no such curve, though single readings can be large or run the other way. No potency is given beside an inconclusive call; the fits are too rough.

assay: qHTS for induction of synthetic lethality in tumor cells producing 2HG: qHTS for the HT-1080-IDH1KD cell line; settings: HT-1080 IDH1 knockdown viability, ATP luminescence, 48 h; series mostly up to 46.1 µM
In short: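 Cytotoxicity counter-line: IDH1KD HT-1080, 48 h, CellTiter-Glo. Curves classed by r2, magnitude and activity.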
Potency means the concentration at half of the fitted maximal effect; tags describe the fitted curve by direction and shape.

Row | SMILES | Potency
1 | O=C(CN1CC=C(c2ccccc2)CC1)Nc1cc(Cl)ccc1Cl | inactive
2 | O=C1OC(=O)C2C1[C@@H]1CC[C@H]2O1 (stereo partly specified) | inconclusive [cytotoxic, partial curve]
3 | CCCCCn1c(=O)c(C(=O)NCc2ccccc2Cl)c(O)c2ccccc21 | inactive
4 | c1ccc2c(CNC3CCCCCC3)c[nH]c2c1 | active: 20 µM
5 | Cc1cccc(CNCCc2c[nH]c3ccccc23)c1 | inconclusive [cytotoxic, single point]
6 | COC(=O)C1CN(C#N)N(c2ccc(Cl)cc2)C12c1ccccc1-c1ccccc12 (stereo unspecified) | active: 3.66 µM
7 | CCCCCCOc1ccc(CN2CCN(CCO)CC2)cc1 | inconclusive [cytotoxic, single point]
8 | O=[N+]([O-])c1ccc(N2CCCNCC2)c2ncccc12 | inconclusive [cytotoxic, single point]
9 | O=c1[nH]c2ccccc2n1C1CCN(C(c2ccccc2OC(F)(F)F)c2nnnn2-c2ccc3c(c2)OCCO3)CC1 (stereo unspecified) | active: 23.1 µM
10 | COC(=O)C1=C(c2ccc(OC(F)(F)F)cc2)C[C@@H]2CC[C@H]1N2C(=O)NCc1cccc2ccccc12 | inconclusive [cytotoxic, single point]
11 | Cc1ccc(C2C(=O)NC(=O)NC2=O)cc1 | inactive
12 | Clc1ccc(C(c2ccc(Cl)cc2)n2cc[n+](CC(OCc3ccc(Cl)cc3Cl)c3ccc(Cl)cc3Cl)c2)cc1 (stereo unspecified) | active: 5.8 µM
13 | Cc1ccc(/C=C2\C(=O)NC(=O)N(CCc3ccc(F)cc3)C2=O)o1 | inconclusive [cytotoxic, single point]
14 | CC(C)(C)n1nnnc1C(c1cccc2ccccc12)N1CCC2(CC1)C(=O)NCN2c1ccccc1 (stereo unspecified) | inconclusive [cytotoxic, single point]
15 | N#Cc1ccc(NC(=O)CN2C(=O)NC3(CCCCCCC3)C2=O)cc1Cl | inconclusive [cytotoxic, partial curve]
16 | COc1ccc(CCNC(=O)c2c(N)n(CCN3CCOCC3)c3nc4ccccc4nc23)cc1OC | inconclusive [cytotoxic, single point]
17 | CC(=O)Nc1ccc(CC(=O)N2CCN(Cc3ccccc3)CC2)cc1 | inactive
18 | C=CCCC1(CC)C(=O)NC(=S)NC1=O | inactive
19 | O=C1COc2ccc(-c3csc(=Nc4ccc(OC(F)F)cc4)n3CC3CCCO3)cc2N1 (stereo unspecified) | inconclusive [cytotoxic, single point]
20 | O=S(=O)(c1ccc2c(c1)OCCO2)N1CCC(c2nc3ccc(Cl)cc3[nH]2)CC1 | active: 14.1 µM
21 | O=P(C(c1c[nH]c2ccccc12)N1CCOCC1)(N1CCOCC1)N1CCOCC1 (stereo unspecified) | inactive
22 | CCCCn1c(O)c(/C=C2/C=CC=N2)c(=O)[nH]c1=O | inconclusive [cytotoxic, single point]
23 | N/C(Cc1ccc(Cl)cc1)=N\OC(=O)c1cccc2ccccc12 | inconclusive [cytotoxic, single point]
24 | CN1C2CCC1CC(OC(=O)c1cc(Cl)cc(Cl)c1)C2 (stereo unspecified) | inconclusive [cytotoxic, single point]

Row | SMILES | Potency
25 | COC(=O)C1=C(c2ccccc2)C[C@@H]2CC[C@H]1N2C(=O)NCCNC(C)=O | inactive
26 | CC(C)COP(=O)(OCC(C)C)C(Nc1ccccc1)c1ccccc1 (stereo unspecified) | inconclusive [cytotoxic, single point]
27 | On1ccccc1=S | active: 0.326 µM
28 | O=C(c1ccc2c(c1)ncn2-c1ccc(F)cc1F)N1CCC2(CC1)OCCO2 | inconclusive [cytotoxic, single point]
29 | COC(=O)[C@@H]1[C@@H](C(=O)OC)C2(c3ccccc3-c3ccccc32)N(c2ccc(Cl)cc2)N1C#N | active: 5.8 µM
30 | Cc1ccc(-n2sc3ccccc3c2=O)cc1 | inconclusive [cytotoxic, single point]
31 | CCCCN=C[C@]12CCC(O)CC1(O)CCC1[C@@H]2CC[C@]2(C)[C@H](C3C=CC(=O)O3)CCC12O (stereo partly specified) | active: 1.46 µM
32 | C[n+]1c(-c2ccccc2)cc(CCCCc2cc(-c3ccccc3)[n+](C)c(-c3ccccc3)c2)cc1-c1ccccc1 | inconclusive [cytotoxic, single point]
33 | CC1CCN(C(=O)CCl)CC1 | inactive
34 | CCOC(=O)c1c(N)n(Cc2ccccc2)c2nc3ccccc3nc12 | inconclusive [cytotoxic, single point]
35 | CC(=O)OC1CC(OC2C(O)CC(OC3C(O)CC(OC4CCC5(C)C(CCC6C5CCC5(C)C(C7=CC(=O)OC7)C(O)CC65O)C4)OC3C)OC2C)OC(C)C1OC1OC(CO)C(O)C(O)C1O (stereo unspecified) | active: 1.3 µM
36 | COC(=O)C1=C(c2ccc(F)cc2F)C[C@@H]2CC[C@H]1N2C | inactive
37 | CCOP(=O)(OCC)C(Cc1ccccc1)N=C(c1ccccc1)c1ccccc1 (stereo unspecified) | inconclusive [cytotoxic, single point]
38 | Cc1cc(O)c2c(c1)C(=O)C13C(=C2O)C(=O)[C@H]2[C@@H](O)[C@@H]1[C@H]1[C@H](O)[C@@H]3C(=O)C3=C(O)c4c(O)cc(C)cc4C(=O)C312 (stereo partly specified) | active: 5.17 µM
39 | CCOC(=O)[C@]12Cc3cc(C)ccc3[C@H]1N(C1CCCCC1)C(=O)c1cc(OC)ccc12 | active: 3.26 µM
40 | CCS(=O)(=O)N1Cc2cc(C(=O)N(C)C)nc(-c3cccc(-c4ccc(F)cc4)c3)c2[C@H]1CCO | active: 23.1 µM
41 | CCOC(=O)C(O)(c1ccc(NC(=O)NC2CCCCC2)cc1)C(F)(F)F (stereo unspecified) | inconclusive [cytotoxic, single point]
42 | N#CSCC(=O)N1c2ccccc2CCc2ccccc21 | active: 23.1 µM
43 | COc1cccc(N2C(=O)NC(=O)/C(=C\c3ccc([N+](=O)[O-])s3)C2=O)c1 | inconclusive [cytotoxic, partial curve, poor fit]
44 | O=C1N[C@@H](Cc2ccccc2)C(=O)N2[C@H]1C[C@H]1c3ccccc3N(OOSc3ccccc3)[C@H]12 | inactive
45 | O=C(CCc1ccccc1)N1Cc2cc(-c3cccc(F)c3)ccc2-n2nncc2C1 | inconclusive [cytotoxic, single point]
46 | CCOC(=O)[C@]12Cc3cc(Cl)ccc3[C@H]1N(C1CCCCC1)C(=O)c1cc(OC)ccc12 | active: 1.84 µM
47 | CCOc1cc2c(cc1OCC)-n1cccc1C(c1ccc(C(C)C)cc1)NC2 (stereo unspecified) | active: 20.6 µM
48 | CN(C(=O)CNC(=O)OCc1ccccc1)c1ccc(Br)cc1C(=O)c1ccccc1Cl | inconclusive [cytotoxic, partial curve]

Row | SMILES | Potency
49 | C=CCNC(=O)c1c(N)n(Cc2ccco2)c2nc3ccccc3nc12 | inconclusive [cytotoxic, single point]
50 | Cc1[nH]c2c(C(F)(F)F)cccc2c1CCN | inconclusive [cytotoxic, single point]
51 | CN1C(=O)N(C)C(=O)C2(Cc3cc([N+](=O)[O-])ccc3N(C)C2c2ccccc2)C1=O (stereo unspecified) | inactive
52 | CCCN1CCCC(C(=O)c2cc(C)c(OC)c(C)c2)C1 (stereo unspecified) | inactive
53 | COC1CC2C=C(C)C=CC=CC(=O)NC(c3ccccc3)CC=CCCC(O)CC(=O)C2=C1O (stereo unspecified) | active: 1.64 µM
54 | CSc1ccccc1C(=O)C1CCCN(Cc2ccn[nH]2)C1 (stereo unspecified) | inactive
55 | CCCCn1nnnc1C(CCc1ccccc1)N1CCC2(CC1)C(=O)NCN2c1ccccc1 (stereo unspecified) | inconclusive [cytotoxic, single point]
56 | COc1ccc(-c2nn(-c3ccccc3)cc2C(=O)N2c3ccc(C)cc3C3CN(C)CCC32)cc1 (stereo unspecified) | active: 23.1 µM
57 | COC(=O)C1=C(c2cccc(C#N)c2)C[C@@H]2CC[C@H]1N2C(=O)NCc1ccco1 | inactive
58 | COc1ccccc1-n1c(-c2ccoc2)nc2ccccc2c1=O | inactive
59 | CCCn1c(C)c(C(=O)c2cccc3ccccc23)c2ccccc21 | inconclusive [cytotoxic, single point]
60 | COc1ccc(C(=O)C2CCCN(Cc3cnc(C)s3)C2)cc1OC (stereo unspecified) | inactive
61 | CC(C)CCn1c(N)c(C(=O)OCC2CCCO2)c2nc3ccccc3nc21 (stereo unspecified) | active: 20.6 µM
62 | Cc1cc(/C=C2\C(=O)NC(=O)N(c3ccc(Cl)cc3)C2=O)c(C)n1-c1sc2c(c1C#N)CCCC2 | inconclusive [cytotoxic, single point]
63 | CCN(CC)C(=O)c1ccc2c(c1)C1C=CCC1C(C(=O)O)N2 (stereo unspecified) | inactive
64 | Nc1nc(F)nc2c1ncn2[C@@H]1O[C@H](CO)[C@@H](O)[C@H]1O | active: 0.231 µM
65 | CN(C)c1ccc(/C=C/C=C2/C(=O)NC(=O)N(c3ccccc3)C2=O)cc1 | active: 6.51 µM
66 | CCn1cc(CN2CCCC(C(=O)c3cccc(OC)c3)C2)c(C)n1 (stereo unspecified) | inactive
67 | CC(C)c1oc(=O)cc2c1[C@@H](O)[C@H]1OC(=O)[C@@]3(C)CC[C@@H](O)[C@@]2(C)C13 (stereo partly specified) | inconclusive [cytotoxic, single point]
68 | COC(=O)C1=C(c2ccc(F)cc2OCc2ccccc2)C[C@@H]2CC[C@H]1N2C | inactive
69 | CCOC(=O)[C@]12Cc3c(cc(OC)c(OC)c3OC)[C@H]1N(C(C)C)C(=O)c1ccccc12 | active: 6.51 µM
70 | O=c1[nH]c(O)c(/C=C2/C=CC(c3cc(Cl)ccc3Cl)=N2)c(=O)[nH]1 | inactive
71 | O=C(COc1cccc(C(F)(F)F)c1)Nc1ccc(S(=O)(=O)N2CCCC2)cc1 | inconclusive [cytotoxic, single point]
